Laboratory results from patent US20040229274A1 (Johns Hopkins, published 2004).

Biological target: T1, native mGluR5 in detergent extracts of rat hippocampus (rat, UniProt P31424 21-1203, limits assumed)
T1 construct: domain: native protein in detergent extract of hippocampus; About 140 kDa band, doublet in hippocampus; also called type 5 metabotropic glutamate receptor
Assay: GST affinity column loaded with hippocampal extract, immunoblot for mGluR5
Description: For example, the bacterially expressed GST-Homer fusion protein was tested for binding to native mGluR5 in detergent extracts of hippocampus in an in vitro binding assay as detailed in Example 7A.

T1 sequence (P31424 21-1203 limits assumed): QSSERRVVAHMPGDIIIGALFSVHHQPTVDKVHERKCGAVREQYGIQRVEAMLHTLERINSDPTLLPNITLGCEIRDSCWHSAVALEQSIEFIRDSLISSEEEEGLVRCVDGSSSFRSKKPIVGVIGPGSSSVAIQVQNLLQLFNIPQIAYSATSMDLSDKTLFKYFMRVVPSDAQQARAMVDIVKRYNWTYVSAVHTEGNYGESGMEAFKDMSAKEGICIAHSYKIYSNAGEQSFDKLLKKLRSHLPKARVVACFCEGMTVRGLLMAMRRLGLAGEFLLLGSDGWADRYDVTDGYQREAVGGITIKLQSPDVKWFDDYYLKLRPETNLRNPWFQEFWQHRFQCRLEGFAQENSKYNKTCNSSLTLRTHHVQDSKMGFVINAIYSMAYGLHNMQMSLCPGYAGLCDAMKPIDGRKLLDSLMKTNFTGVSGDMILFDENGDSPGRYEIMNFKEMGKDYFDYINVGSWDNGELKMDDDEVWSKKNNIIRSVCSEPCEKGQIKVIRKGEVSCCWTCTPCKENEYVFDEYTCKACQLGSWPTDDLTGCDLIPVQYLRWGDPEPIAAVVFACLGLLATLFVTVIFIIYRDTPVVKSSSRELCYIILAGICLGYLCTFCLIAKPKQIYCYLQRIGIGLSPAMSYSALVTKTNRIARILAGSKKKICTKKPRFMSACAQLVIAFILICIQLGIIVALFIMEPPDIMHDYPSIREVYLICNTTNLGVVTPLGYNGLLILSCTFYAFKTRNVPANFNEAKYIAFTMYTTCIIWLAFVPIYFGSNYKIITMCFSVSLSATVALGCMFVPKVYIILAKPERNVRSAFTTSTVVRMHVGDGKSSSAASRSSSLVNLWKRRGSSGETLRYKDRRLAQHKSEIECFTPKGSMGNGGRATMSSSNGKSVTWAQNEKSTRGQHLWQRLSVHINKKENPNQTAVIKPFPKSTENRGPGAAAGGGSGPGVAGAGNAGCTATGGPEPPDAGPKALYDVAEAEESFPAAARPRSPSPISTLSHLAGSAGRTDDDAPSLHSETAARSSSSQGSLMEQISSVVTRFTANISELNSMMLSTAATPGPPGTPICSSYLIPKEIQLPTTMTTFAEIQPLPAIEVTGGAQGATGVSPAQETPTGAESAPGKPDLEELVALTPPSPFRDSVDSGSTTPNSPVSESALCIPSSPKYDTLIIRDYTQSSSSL

binding result: no binding
B1: GST alone (other)
chain: not shown
notes: Control for GST-Homer
